Test in all cases: Primary Screen for Target Class Profiling of Small Molecule Inhibitors of Methyltransferases
Assay [1] addresses Glycine N-methyltransferase (Homo sapiens) (UniProt Q14749). The note with it: purified enzyme, MTase-Glo SAH luminescence; measured here: GNMT inhibition; at 40 µM; stronger effect = lower value. In short, it runs like this:
(§1)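 Each enzyme was assayed with SAM and its substrate. SAH formation detected by MTase-Glo luminescence; single-point 40 uM screen[…].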

Assay [2] deals with Guanidinoacetate N-methyltransferase (Homo sapiens) (UniProt Q14353). The note with it: purified enzyme, MTase-Glo SAH luminescence; measured here: GAMT inhibition; at 40 µM; stronger effect = lower value. In short, it runs like this: as §1
Assay [3] addresses Histamine N-methyltransferase (Homo sapiens) (UniProt P50135). The note with it: purified enzyme, MTase-Glo SAH luminescence; measured here: HNMT inhibition; at 40 µM; stronger effect = lower value. The method in brief:
as §1

The target in assay [4] is Nicotinamide N-methyltransferase (Homo sapiens) (UniProt P40261). As to conditions: purified enzyme, MTase-Glo SAH luminescence; measured here: NNMT inhibition; at 40 µM; stronger effect = lower value. In short, it runs like this: as §1
For assay [5], the target named is Phenylethanolamine N-methyltransferase (Homo sapiens) (UniProt P11086). The note with it: purified enzyme, MTase-Glo SAH luminescence; measured here: PNMT inhibition; at 40 µM; stronger effect = lower value. In short, it runs like this: as §1

Drawing on PubChem BioAssay AID1745853 (National Center for Advancing Translational Sciences (NCATS), 2022), this text covers activity change, negative = inhibition for 37 compounds.

SMILES strings stand for the structures. This is one part of the list. Shown are side measurements of this screen, not its main read-out; they come without a call.
% is set by controls: 0 for no effect and ±100 for the full control effect.

In the case of `O=C(c1ccc(OCCN2CCCCC2)cc1)c1c(-c2ccc(O)cc2)sc2cc(O)ccc12`, the activity change, negative = inhibition in assay [1] was -3.19%; in assay [2], 8.15%; in assay [3], -33%; in assay [4], -11.8%; in assay [5] it was -3.84%.
For `O=C1c2ccccc2-c2n[nH]c3cccc1c23` the same measures were -36.7%, -1.16%, -3.49%, -15.4% and -6.37%.
For `COc1cc(Cl)ccc1C(=O)N1CC[C@@H]2CN(S(C)(=O)=O)[C@@H]2C1` the same measures were 1.58%, -6.37%, 2.37%, 0.472% and 1.02%.
Regarding `COc1ccc(NC(=O)Cn2nc3n(Cc4ccccc4)c(=O)c4ccccc4n3c2=O)cc1OC`, the activity change, negative = inhibition in assay [1] is 3.71%; in assay [2], 0%; in assay [3], 8.84%; in assay [4], -0.964%; in assay [5] it was 4.46%.
For `C[C@@]1(O)CCN(C2CCN(c3ccc(F)cc3)CC2)C[C@@H]1O` the same measures were -5.13%, -6.09%, 0.125%, -5% and -1.02%.
Take `CC1(C(=O)NC2CCCC2)Cn2c(nc3ccccc32)C(=O)N1CCCc1ccccc1` (stereo not given): the activity change, negative = inhibition is 3.57% in assay [1]; 0% in assay [2]; 6.13% in assay [3]; 9.84% in assay [4]; 1.72% in assay [5].
The matching figures for `CCCN1C(=O)c2cc(C(=O)NC3CCCC3)nn2CC1(C)C(=O)NC1CCCC1` (stereo not given): 7.23%, 0%, 5.46%, 7.62% and 4.14%.
For `CCOc1ccc(CN2C(=O)c3cc4ccccc4n3CC2(C)C(=O)NC2CCCCC2)cc1` (stereo not given) the same measures were -3.32%, 1.86%, 1.01%, -1.08% and -4.51%.
In the case of `COc1ccc2nc(NC(=O)Cn3c(=O)oc4cc(S(=O)(=O)NC(C)C)ccc43)sc2c1`, the activity change, negative = inhibition in assay [1] is -3.87%; in assay [2] it was 5.3%; in assay [3], 0.126%; in assay [4], -4.87%; in assay [5], -28.1%.
For the compound `COC(=O)c1ncn2c1C(=O)N(Cc1cccs1)C(C)(C(=O)NC1CCCCC1)C2` (stereo not given), the activity change, negative = inhibition in assay [1] came out at 6.07%; in assay [2] it was 5.49%; in assay [3], 9.79%; in assay [4] it was 9.25%; in assay [5] it was 5.02%.
The matching figures for `CCCC1c2ccc(C)n2CCN1C(=O)Nc1cc(C)ccc1C` (stereo not given): -5.94%, 2.44%, -10.8%, 6.39% and -3.48%.
Turning to `O=c1c2ccccc2n2c(-c3cccc(Cl)c3)nnc2n1Cc1ccc(F)cc1`, the activity change, negative = inhibition was -3.71% in assay [1]; 2.61% in assay [2]; 3.76% in assay [3]; -2.75% in assay [4]; 1.48% in assay [5].
Take `COc1cc2c(c(OC)c1OC)-c1ccc(OC)c(=O)cc1[C@@H](NC(C)=O)CC2`: the activity change, negative = inhibition in assay [1] was -11.2%; in assay [2], 2.38%; in assay [3], -2.06%; in assay [4], -5.57%; in assay [5], 8.54%.
With `C[C@H]1[C@H](/C=C/c2ccc(-c3ccccc3C#N)cn2)[C@@H]2[C@@H](C)OC(=O)[C@@H]2C[C@@H]1C`, the activity change, negative = inhibition in assay [1] was -6.9%; in assay [2], -6.99%; in assay [3] it was 10.5%; in assay [4], -41.9%; in assay [5] it was -1.7%.
For `Cc1ccc(C(=O)Cn2nc3n(CCC(C)C)c(=O)c4ccc(C(=O)NCC(C)C)cc4n3c2=O)cc1` the same measures were 3.72%, 1.65%, 2.24%, -0.887% and 4.61%.
For `CCCn1c(=O)c2ccc(Cl)cc2n2c(SCC(=O)Nc3cccc(Cl)c3)nnc12` the same measures were -2.69%, -12.2%, 11.9%, -4.91% and -4.57%.
The matching figures for `CCCn1c(=O)c2ccc(C(=O)NC3CCCCC3)cc2n2c(=O)n(Cc3ccc(F)cc3)nc12`: 2.44%, 0%, 5.22%, 6.27% and 3.3%.
`CNC(=O)c1ccc(N2C(=S)N(c3cnc(C#N)c(C(F)(F)F)c3)C(=O)C23CCC3)cc1F`: the activity change, negative = inhibition was 0.014% in assay [1]; -8.48% in assay [2]; -3.26% in assay [3]; -19.3% in assay [4]; -12.4% in assay [5].
For the compound `CC(C)OCCCn1c(=O)c2cc(Cl)ccc2n2c(SCc3cccc(F)c3)nnc12`, the activity change, negative = inhibition is -10.7% in assay [1]; -0.621% in assay [2]; -0.459% in assay [3]; -15.3% in assay [4]; -5.07% in assay [5].
`CCC(C)NC(=O)c1ccc2c(=O)n(C(C)C)c3nn(Cc4ccc(F)cc4Cl)c(=O)n3c2c1` (stereo not given): the activity change, negative = inhibition in assay [1] was -0.516%; in assay [2], 4.73%; in assay [3], 0.352%; in assay [4] it was 0.621%; in assay [5], 0.142%.
The matching figures for `O=C(CCc1nnc2n(Cc3ccc(Cl)cc3)c(=O)c3ccccc3n12)N1CCN(C2CCCCC2)CC1`: -7%, 1.17%, -10.7%, 0.945% and -0.349%.
The matching figures for `COc1cccc(CN2CCC3(CC2)C(C(=O)O)CC(=O)N3C)c1OC` (stereo not given): -6.46%, -12.2%, -4.38%, -16.2% and -18.4%.
The matching figures for `Cc1ccc(C)c(S(=O)(=O)c2nnn3c2nc(NCCC(C)C)c2ccccc23)c1`: -1.09%, -1.42%, -2.53%, -6.66% and -5.37%.
For `Cn1c(=O)c2ccc(C(=O)NC3CCCCC3)cc2n2c(SCc3ccc(F)cc3)nnc12`, the activity change, negative = inhibition in assay [1] was 1.82%; in assay [2], 1.83%; in assay [3], 1.99%; in assay [4], 1.79%; in assay [5], 5.2%.
The matching figures for `CCOc1nc(NC(=O)Cc2cc(OC)ccc2OC)cc(N)c1C#N`: 0.525%, -4.28%, 8.36%, -35.5% and 2.45%.
The matching figures for `CCOC(=O)[C@@H]1[C@H]2c3ccccc3N(CCOC)C(=O)[C@H]2N(C(=O)c2ccccc2)[C@@H]1c1ccccc1`: -2.15%, -6.14%, -4.15%, 6.58% and 0.346%.
Turning to `CCS(=O)(=O)N1C[C@@H](C(=O)NCc2ccc(C)o2)[C@H](c2ccncc2)C1`, the activity change, negative = inhibition in assay [1] was -8.28%; in assay [2], -10.2%; in assay [3], -4.01%; in assay [4], -14.1%; in assay [5] it was -9.21%.
Consider `CCc1ccc(N2C(=O)c3nc4ccccc4n3CC2(C)C(=O)NC2CCCC2)cc1` (stereo not given), for which the activity change, negative = inhibition in assay [1] was -3.57%; in assay [2], 4.06%; in assay [3], -2.21%; in assay [4], -1.06%; in assay [5], -3.74%.
The matching figures for `CCc1cccc(NC(=O)Cn2nc3n(CC(C)C)c(=O)c4ccc(C(=O)NC(C)CC)cc4n3c2=O)c1` (stereo not given): -0.926%, 0%, 3.33%, -0.417% and 4.7%.
For `CCc1ccccc1N1C(=O)c2c(C(=O)OC)ncn2CC1(C)C(=O)NC1CCCCCC1` (stereo not given) the same measures were 0.95%, 1.73%, -4.56%, 5.74% and 0.856%.
Take `CC1(C)CC[C@]2(C(=O)O[C@@H]3O[C@H](CO)[C@@H](O)[C@H](O)[C@H]3O)CC[C@]3(C)C(=CCC4[C@@]5(C)C[C@@H](O)[C@H](O)C(CO)(CO)C5CC[C@]43C)C2[C@@H]1O` (stereo not given in full): the activity change, negative = inhibition in assay [1] was 1.48%; in assay [2] it was 4.83%; in assay [3], 2.21%; in assay [4] it was -9.05%; in assay [5] it was 2.93%.
Regarding `Cn1c(=O)n(C)c2cc(S(=O)(=O)Nc3ccc(N4CCOCC4)c(Cl)c3)ccc21`, the activity change, negative = inhibition is -7.47% in assay [1]; 0.805% in assay [2]; -23.5% in assay [3]; 8.55% in assay [4]; 0.995% in assay [5].
The matching figures for `CN(Cc1cc(C2CC2)on1)Cc1nnc(C2CC(N)C2)n1C1CC1` (stereo not given): -5.88%, -9.93%, -4.04%, -16.1% and 0.925%.
For `O=C(N1CC(Oc2ccc(-c3noc(-c4ccccc4)n3)cc2)C1)C1(c2ccccc2)CC1` the same measures were -3.36%, -3.8%, -1.46%, -9.84% and -8.03%.
As to `O=C(CCC1CCCC1)N1CCCC1c1nc(CCOCC2CC2)no1` (stereo not given), the activity change, negative = inhibition was -2.97% in assay [1]; -0.808% in assay [2]; 0.3% in assay [3]; -11.5% in assay [4]; -3.09% in assay [5].
Take `COc1ccc(OC)c(CNC(=O)CCCn2ccc3cc(S(=O)(=O)N4CCCC4)ccc32)c1`: the activity change, negative = inhibition in assay [1] worked out at 8.46%; in assay [2] it was 0%; in assay [3], 7.96%; in assay [4] it was 7.14%; in assay [5] it was 3.87%.
`CC(CNC(=O)CCc1nnc2n(Cc3ccc(Cl)cc3)c(=O)c3ccccc3n12)c1ccccc1` (stereo not given): the activity change, negative = inhibition in assay [1] was -14.3%; in assay [2], -5.84%; in assay [3] it was -8.92%; in assay [4] it was -26.2%; in assay [5], -2.46%.
